± gives the standard error. Variants at the background level are over-represented here.
B1: glmS ribozyme (parent)
chain: AUAAAAGCGCCAGAACUACAGAAAUGUAGUUGACGAGGAGGAGGUUUAUCGAAUUUUCGGCGGAUGCCUCCAAA

What was measured:
Conditions in all cases: with glucosamine-6-phosphate
[1] = variants of: B1; test: self-cleavage kobs at 640 uM GlcN6P; higher = faster cleavage; RNA array
Summary of the method: (§1)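 Barcoded ribozyme variants were transcribed in situ on sequenced MiSeq chips by E. coli RNA polymerase. At 37 °C, a hybridised Cy3 probe tracked them while glucosamine-6-phosphate (40 μM to 10 mM) in HEPES/KCl/Mg(OAc)2 buffer flowed in and tiles were imaged over ~14 h. Per-tile medians of signals normalised to baseline and to non-cleaving reference variants were fit to one- or two-exponential decays, giving kobs. kcat and KM came from weighted Michaelis–Menten fits across concentrations.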

[2] = variants of: B1; test: self-cleavage kobs at 160 uM GlcN6P; higher = faster cleavage; RNA array
Summary of the method: as §1

[3] = variants of: B1; test: self-cleavage kobs at 10000 uM GlcN6P; higher = faster cleavage; RNA array
Summary of the method: as §1

[4] = variants of: B1; test: self-cleavage kobs at 2500 uM GlcN6P; higher = faster cleavage; RNA array
Summary of the method: as §1

Variant	self-cleavage kobs at 640 uM GlcN6P [1] [s⁻¹]	self-cleavage kobs at 160 uM GlcN6P [2] [s⁻¹]	self-cleavage kobs at 10000 uM GlcN6P [3] [s⁻¹]	self-cleavage kobs at 2500 uM GlcN6P [4] [s⁻¹]
C8U G9U C67A C71U	< 1e-05	–	–	–
C8U G13U U31G A53C	< 1e-05	–	–	–
C8U G32U C68A	< 1e-05	–	–	–
C8U G35A A42G	< 1e-05	< 1e-05	< 1e-05	–
C8U G35C A36C G41U U49C	< 1e-05	–	–	< 1e-05
C8U G35U A39U C70U	< 1e-05	–	–	< 1e-05
C8U G37C U47G A53U G62C	< 1e-05	< 1e-05	–	< 1e-05
C8U U31G C34U U47A	< 1e-05	–	–	–
C8U U47G	< 1e-05	–	–	–
C8U U56A U65A C70G	< 1e-05	–	–	–
G9A A14U G63U	< 1e-05	–	–	< 1e-05
G9A C10A U30C	< 1e-05	–	–	< 1e-05
G9A C16G G43U A52G A53U	< 1e-05	–	–	–
G9A C16G U30G A52C	< 1e-05	–	–	< 1e-05
G9A G32U A36G G44A	< 1e-05	–	–	< 1e-05
G9A G38A G51A	< 1e-05	< 1e-05	–	< 1e-05
G9A G38C U56G G63A C68G	< 1e-05	< 1e-05	–	< 1e-05
G9A G38U C58G G60U	< 1e-05	–	–	< 1e-05
G9A G44U C70U	< 1e-05	–	–	–
G9A U47A	< 1e-05	< 1e-05	–	< 1e-05
G9A U54G	< 1e-05	< 1e-05	–	–
G9C A12C C19A G51U U54G G63C C70G	< 1e-05	–	–	< 1e-05
G9C A12C G29C G37U	< 1e-05	–	–	–
G9C A12G C16G G37C	< 1e-05	–	–	< 1e-05

Variant	self-cleavage kobs at 640 uM GlcN6P [1] [s⁻¹]	self-cleavage kobs at 160 uM GlcN6P [2] [s⁻¹]	self-cleavage kobs at 10000 uM GlcN6P [3] [s⁻¹]	self-cleavage kobs at 2500 uM GlcN6P [4] [s⁻¹]
G9C A15G A42C G66C	< 1e-05	–	–	–
G9C A39C G41A U46C U55G	< 1e-05	< 1e-05	–	–
G9C A39U	< 1e-05	< 1e-05	< 1e-05	< 1e-05
G9C A53U G59U	< 1e-05	–	–	< 1e-05
G9C C11A A33U C71U	< 1e-05	< 1e-05	–	< 1e-05
G9C C16A A33U G41C G60U	< 1e-05	–	–	< 1e-05
G9C C67G C71A	< 1e-05	–	–	< 1e-05
G9C G13A A15U G29A C67U C68A	< 1e-05	–	–	–
G9C G29U G35U U47G U65G	< 1e-05	–	–	< 1e-05
G9C G37U U56G	< 1e-05	–	–	< 1e-05
G9C G38C G62C C67U	< 1e-05	< 1e-05	–	< 1e-05
G9C G51U	< 1e-05	< 1e-05	< 1e-05	–
G9C U56A G62U	< 1e-05	–	–	–
G9U A12C G37C G41C	< 1e-05	< 1e-05	–	< 1e-05
G9U A12U A42C	< 1e-05	–	–	–
G9U A33G A39C A42U G51A	< 1e-05	–	–	–
G9U A36C G38U G60U C71A	< 1e-05	–	–	< 1e-05
G9U A36G A39U	< 1e-05	–	–	< 1e-05
G9U A42C G43A G66C	< 1e-05	< 1e-05	–	< 1e-05
G9U C10U U30A C34U U49A G62U	< 1e-05	–	–	–
G9U C50U	< 1e-05	< 1e-05	< 1e-05	–
G9U G13A	< 1e-05	< 1e-05	< 1e-05	–
G9U G13C A42U	< 1e-05	< 1e-05	–	< 1e-05
G9U G29A U46A G51U C67U	< 1e-05	–	–	–

Variant	self-cleavage kobs at 640 uM GlcN6P [1] [s⁻¹]	self-cleavage kobs at 160 uM GlcN6P [2] [s⁻¹]	self-cleavage kobs at 10000 uM GlcN6P [3] [s⁻¹]	self-cleavage kobs at 2500 uM GlcN6P [4] [s⁻¹]
G9U G29U U57C C68G	< 1e-05	< 1e-05	–	–
G9U G37U	< 1e-05	< 1e-05	–	< 1e-05
G9U G43A A48G	< 1e-05	–	–	–
G9U G44U A48U	< 1e-05	< 1e-05	–	–
G9U G59C	< 1e-05	< 1e-05	< 1e-05	< 1e-05
G9U G60A	< 1e-05	–	–	< 1e-05
G9U G63C	< 1e-05	–	–	–
G9U U30G G51A	< 1e-05	–	–	< 1e-05
G9U U31A U65G	< 1e-05	< 1e-05	–	< 1e-05
G9U U45A	< 1e-05	< 1e-05	–	–
G9U U46G C58G	< 1e-05	–	–	< 1e-05
G9U U56A G63U A64U	< 1e-05	–	–	–
G9U U56C	< 1e-05	< 1e-05	< 1e-05	< 1e-05
C10A A12C U56A	7.12e-05 ± 3e-05	–	0.00015 ± 2.7e-05	0.000306 ± 0.00011
C10A A12G A15C G44C	< 1e-05	–	–	–
C10A A14G U69G	0.000195 ± 7.6e-05	0.000148 ± 5.1e-05	–	6.53e-05 ± 2.3e-05
C10A A36G G38C G44A C61U	< 1e-05	–	< 1e-05	–
C10A A39C C50U	< 1e-05	–	–	–
C10A A42G G51U	< 1e-05	–	< 1e-05	–
C10A C11G G37U A39G A53U G60A	< 1e-05	–	–	< 1e-05
C10A C16A U47C U65C	< 1e-05	< 1e-05	–	–
C10A C16U C67G	0.000345 ± 0.00015	–	–	–
C10A C34A	< 1e-05	< 1e-05	< 1e-05	–
C10A C34U C50G G62U	0.000144 ± 4.8e-05	0.00045 ± 0.00013	–	8.51e-05 ± 2.1e-05

Variant	self-cleavage kobs at 640 uM GlcN6P [1] [s⁻¹]	self-cleavage kobs at 160 uM GlcN6P [2] [s⁻¹]	self-cleavage kobs at 10000 uM GlcN6P [3] [s⁻¹]	self-cleavage kobs at 2500 uM GlcN6P [4] [s⁻¹]
C10A C61G C67G C71G	0.000346 ± 8.8e-05	–	–	0.000167 ± 8.1e-05
C10A C68G	6.2e-05 ± 2.8e-05	0.000416 ± 0.00019	–	6.4e-05 ± 1.8e-05
C10A G13U C16A U56G U65A	< 1e-05	–	–	–
C10A G63A	< 1e-05	< 1e-05	< 1e-05	–
C10A U31G A33C G35A G40C	< 1e-05	–	–	–
C10A U46A	< 1e-05	< 1e-05	< 1e-05	< 1e-05
C10A U49C C71G	< 1e-05	–	–	–
C10A U55C	< 1e-05	–	–	–
C10G A12U U31A A36U C71U	< 1e-05	–	–	–
C10G A14G A36C G62U	< 1e-05	–	–	–
C10G A15C G35C A39G	< 1e-05	–	–	–
C10G A48G U54G	< 1e-05	–	–	–
C10G C11A A39U	< 1e-05	–	–	< 1e-05
C10G C11A U31C G35C C70G	0.00013 ± 6.3e-05	–	–	–
C10G C16U G29A G51U A52G	< 1e-05	–	–	< 1e-05
C10G G40U C71U	< 1e-05	–	–	< 1e-05
C10G U30A G32A U47A	< 1e-05	–	–	< 1e-05
C10G U31C A48U C61A C70G	< 1e-05	< 1e-05	–	–
C10G U31C G43A G44U C58A	< 1e-05	–	–	–
C10G U49A U57C G59U	< 1e-05	–	–	–
C10U A12G G32U G43U G59A	< 1e-05	< 1e-05	–	–
C10U A15C C34G C58G	< 1e-05	–	–	< 1e-05
C10U A33U A52G A53U	< 1e-05	–	–	< 1e-05
C10U A36U G51U	< 1e-05	–	–	< 1e-05

Variant	self-cleavage kobs at 640 uM GlcN6P [1] [s⁻¹]	self-cleavage kobs at 160 uM GlcN6P [2] [s⁻¹]	self-cleavage kobs at 10000 uM GlcN6P [3] [s⁻¹]	self-cleavage kobs at 2500 uM GlcN6P [4] [s⁻¹]
C10U A42C	< 1e-05	< 1e-05	–	< 1e-05
C10U A48C C50A	< 1e-05	–	–	< 1e-05
C10U C11G A14G G43C A53C	< 1e-05	< 1e-05	–	< 1e-05
C10U C11G G13U A48U C58A	< 1e-05	–	–	< 1e-05
C10U C11U C67U	< 1e-05	–	–	< 1e-05
C10U G29A U31G	< 1e-05	< 1e-05	< 1e-05	–
C10U G29U G35U	< 1e-05	–	–	–
C10U G35C G62C	< 1e-05	–	–	< 1e-05
C10U G35U G51A	< 1e-05	–	–	–
C10U G43A C50G	< 1e-05	–	–	–
C10U G43C U47C	< 1e-05	–	–	–
C10U G43C U47C A52C U65C G66A C70G	< 1e-05	< 1e-05	–	–
C10U G63C	< 1e-05	–	< 1e-05	–
C10U U31A A39C	< 1e-05	–	–	< 1e-05
C10U U46C G51U	< 1e-05	–	–	–
C10U U47G U56A C58U	< 1e-05	–	–	–
C11A A12U G35A C70G	< 1e-05	–	–	–
C11A A15C A39U G40C G51A C70U	< 1e-05	< 1e-05	< 1e-05	< 1e-05
C11A A15G A39C G40U G51C	< 1e-05	< 1e-05	–	< 1e-05
C11A A39G	0.000101 ± 2.7e-05	–	–	0.000121 ± 2.7e-05
C11A A48C U65C C70G	< 1e-05	< 1e-05	–	–
